Experimental data as given in paper PMC1266353.
No constants are given. Whether binding was seen depends on the method and setting. In cells and extracts the contact can be indirect. Some binding calls cover weakened binding; strength is not graded here.

T1: KIF1Bα (human), overexpressed (human) (UniProt O60333)
T1 sequence: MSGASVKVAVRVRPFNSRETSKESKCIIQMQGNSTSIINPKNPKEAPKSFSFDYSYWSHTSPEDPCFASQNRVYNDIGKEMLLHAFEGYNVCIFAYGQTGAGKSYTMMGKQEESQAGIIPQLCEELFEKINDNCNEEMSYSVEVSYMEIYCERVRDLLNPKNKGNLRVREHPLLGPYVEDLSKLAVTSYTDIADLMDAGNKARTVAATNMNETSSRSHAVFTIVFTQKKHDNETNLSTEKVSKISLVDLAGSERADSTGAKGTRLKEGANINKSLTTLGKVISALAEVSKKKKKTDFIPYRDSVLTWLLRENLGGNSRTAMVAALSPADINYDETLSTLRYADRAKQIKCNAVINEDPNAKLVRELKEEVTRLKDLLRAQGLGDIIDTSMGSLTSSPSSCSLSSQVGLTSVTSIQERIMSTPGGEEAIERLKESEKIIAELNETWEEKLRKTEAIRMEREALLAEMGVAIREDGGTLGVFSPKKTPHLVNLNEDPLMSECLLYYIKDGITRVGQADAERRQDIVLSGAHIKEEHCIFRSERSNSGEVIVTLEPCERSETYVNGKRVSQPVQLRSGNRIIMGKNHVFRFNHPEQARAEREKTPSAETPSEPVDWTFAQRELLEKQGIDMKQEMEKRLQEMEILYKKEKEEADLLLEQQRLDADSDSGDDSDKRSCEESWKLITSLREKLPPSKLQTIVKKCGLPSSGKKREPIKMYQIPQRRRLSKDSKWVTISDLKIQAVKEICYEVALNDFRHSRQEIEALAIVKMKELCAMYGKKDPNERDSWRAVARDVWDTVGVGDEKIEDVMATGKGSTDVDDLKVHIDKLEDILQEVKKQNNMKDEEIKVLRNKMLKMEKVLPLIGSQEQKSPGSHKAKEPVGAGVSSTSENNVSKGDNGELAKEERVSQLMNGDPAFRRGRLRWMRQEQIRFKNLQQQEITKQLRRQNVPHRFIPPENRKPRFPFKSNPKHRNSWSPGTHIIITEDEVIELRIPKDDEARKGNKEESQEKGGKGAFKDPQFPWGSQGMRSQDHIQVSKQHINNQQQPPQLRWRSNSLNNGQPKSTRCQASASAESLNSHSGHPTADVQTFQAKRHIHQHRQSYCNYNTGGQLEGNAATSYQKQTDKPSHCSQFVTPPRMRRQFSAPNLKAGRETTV

T2: KIF1Bα350-1135-VSV (human) (UniProt O60333)
T2 sequence: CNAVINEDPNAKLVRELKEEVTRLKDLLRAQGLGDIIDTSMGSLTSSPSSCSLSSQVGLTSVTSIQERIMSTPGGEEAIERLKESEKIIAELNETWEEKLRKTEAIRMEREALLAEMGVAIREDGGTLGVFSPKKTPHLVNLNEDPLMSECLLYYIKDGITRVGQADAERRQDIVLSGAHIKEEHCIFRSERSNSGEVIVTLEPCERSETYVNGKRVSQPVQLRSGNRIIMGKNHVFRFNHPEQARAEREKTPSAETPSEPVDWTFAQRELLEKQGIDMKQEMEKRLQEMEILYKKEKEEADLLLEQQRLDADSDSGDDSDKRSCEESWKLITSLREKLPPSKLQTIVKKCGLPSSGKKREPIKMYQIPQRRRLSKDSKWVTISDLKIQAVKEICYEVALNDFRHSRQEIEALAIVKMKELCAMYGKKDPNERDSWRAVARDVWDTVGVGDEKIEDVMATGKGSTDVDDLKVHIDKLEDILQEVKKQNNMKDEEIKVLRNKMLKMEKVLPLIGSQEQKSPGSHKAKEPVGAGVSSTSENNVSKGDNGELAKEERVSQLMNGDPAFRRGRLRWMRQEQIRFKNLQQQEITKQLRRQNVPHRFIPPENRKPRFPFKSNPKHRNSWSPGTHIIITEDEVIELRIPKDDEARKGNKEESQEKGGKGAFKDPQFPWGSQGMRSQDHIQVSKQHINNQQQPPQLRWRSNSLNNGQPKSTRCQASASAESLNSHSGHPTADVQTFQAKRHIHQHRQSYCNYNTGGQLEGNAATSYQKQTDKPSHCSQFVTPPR

B1: KBP-VSV (protein, UniProt Q96EK5 1-621)
chain: MANVPWAEVCEKFQAALALSRVELHKNPEKEPYKSKYSARALLEEVKALLGPAPEDEDERPEAEDGPGAGDHALGLPAEVVEPEGPVAQRAVRLAVIEFHLGVNHIDTEELSAGEEHLVKCLRLLRRYRLSHDCISLCIQAQNNLGILWSEREEIETAQAYLESSEALYNQYMKEVGSPPLDPTERFLPEEEKLTEQERSKRFEKVYTHNLYYLAQVYQHLEMFEKAAHYCHSTLKRQLEHNAYHPIEWAINAATLSQFYINKLCFMEARHCLSAANVIFGQTGKISATEDTPEAEGEVPELYHQRKGEIARCWIKYCLTLMQNAQLSMQDNIGELDLDKQSELRALRKKELDEEESIRKKAVQFGTGELCDAISAVEEKVSYLRPLDFEEARELFLLGQHYVFEAKEFFQIDGYVTDHIEVVQDHSALFKVLAFFETDMERRCKMHKRRIAMLEPLTVDLNPQYYLLVNRQIQFEIAHAYYDMMDLKVAIADRLRDPDSHIVKKINNLNKSALKYYQLFLDSLRDPNKVFPEHIGEDVLRPAMLAKFRVARLYGKIITADPKKELENLATSLEHYKFIVDYCEKHPEAAQEIEVELELSKEMVSLLPTKMERFRTKMALT
B2: KBP, overexpressed in 293 cells (protein, UniProt Q96EK5 1-621)
chain: MANVPWAEVCEKFQAALALSRVELHKNPEKEPYKSKYSARALLEEVKALLGPAPEDEDERPEAEDGPGAGDHALGLPAEVVEPEGPVAQRAVRLAVIEFHLGVNHIDTEELSAGEEHLVKCLRLLRRYRLSHDCISLCIQAQNNLGILWSEREEIETAQAYLESSEALYNQYMKEVGSPPLDPTERFLPEEEKLTEQERSKRFEKVYTHNLYYLAQVYQHLEMFEKAAHYCHSTLKRQLEHNAYHPIEWAINAATLSQFYINKLCFMEARHCLSAANVIFGQTGKISATEDTPEAEGEVPELYHQRKGEIARCWIKYCLTLMQNAQLSMQDNIGELDLDKQSELRALRKKELDEEESIRKKAVQFGTGELCDAISAVEEKVSYLRPLDFEEARELFLLGQHYVFEAKEFFQIDGYVTDHIEVVQDHSALFKVLAFFETDMERRCKMHKRRIAMLEPLTVDLNPQYYLLVNRQIQFEIAHAYYDMMDLKVAIADRLRDPDSHIVKKINNLNKSALKYYQLFLDSLRDPNKVFPEHIGEDVLRPAMLAKFRVARLYGKIITADPKKELENLATSLEHYKFIVDYCEKHPEAAQEIEVELELSKEMVSLLPTKMERFRTKMALT

Legend:
[1] = target: T1, KIF1Bα (human), overexpressed (human); experiment: co-IP; 293 cells transiently overexpressing KBP-VSV alone or with KIF1Bα; Triton X-100 lysate; precipitated with anti-KIF1B serum, blotted with VSV antibody; 4°C
[2] = target: T2, KIF1Bα350-1135-VSV (human); experiment: co-IP; 293 cells transiently overexpressing KBP alone or with KIF1Bα-MYC or KIF1Bα350-1135-VSV; precipitated with VSV or MYC antibody; KBP detected with the specific antibody

Binder	binding [1]	binding [2]
B1	binds	
B2		no binding
